Measurements from the supplement of paper PMC7125110.
± gives the standard error. Variants at the background level are over-represented here.

B1: glmS ribozyme (parent)
chain: AUAAAAGCGCCAGAACUACAGAAAUGUAGUUGACGAGGAGGAGGUUUAUCGAAUUUUCGGCGGAUGCCUCCAAA

Assays:
Settings in all cases: with glucosamine-6-phosphate
[1] = variants of: B1; assay: self-cleavage kobs at 40 uM GlcN6P; higher = faster cleavage; RNA array
Summary of the method: (§1)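 Using a hybridised Cy3 probe at 37 °C, barcoded ribozyme variants transcribed in situ by E. coli RNA polymerase on sequenced MiSeq chips were monitored across tiles imaged over ~14 h. The flow contained glucosamine-6-phosphate from 40 μM to 10 mM in HEPES/KCl/Mg(OAc)2 buffer. Signals were normalised to baseline and to non-cleaving reference variants before per-tile medians were fit to one- or two-exponential decays to yield kobs. Weighted Michaelis–Menten fits across concentrations gave kcat and KM.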

[2] = variants of: B1; assay: self-cleavage kobs at 160 uM GlcN6P; higher = faster cleavage; RNA array
Summary of the method: as §1

[3] = variants of: B1; assay: self-cleavage kobs at 10000 uM GlcN6P; higher = faster cleavage; RNA array
Summary of the method: as §1

[4] = variants of: B1; assay: self-cleavage kobs at 640 uM GlcN6P; higher = faster cleavage; RNA array
Summary of the method: as §1

[5] = variants of: B1; assay: self-cleavage kobs at 2500 uM GlcN6P; higher = faster cleavage; RNA array
Summary of the method: as §1

Variant | self-cleavage kobs at 40 uM GlcN6P [1] [s⁻¹] | self-cleavage kobs at 160 uM GlcN6P [2] [s⁻¹] | self-cleavage kobs at 10000 uM GlcN6P [3] [s⁻¹] | self-cleavage kobs at 640 uM GlcN6P [4] [s⁻¹] | self-cleavage kobs at 2500 uM GlcN6P [5] [s⁻¹]
U30C U49C | < 1e-05 | < 1e-05 | < 1e-05 |  | 
G29U A33U G38C G40A | < 1e-05 |  |  |  | 
A15G G35C | < 1e-05 |  |  | < 1e-05 | < 1e-05
A14G G35C | < 1e-05 | < 1e-05 |  | < 1e-05 | < 1e-05
U31A A42G C50U G51U C61G | < 1e-05 |  | < 1e-05 |  | 
U30C A48U | < 1e-05 | < 1e-05 | < 1e-05 | < 1e-05 | 
U31G U55G C58U | < 1e-05 |  |  |  | 
G29C U31G G60U | < 1e-05 |  |  |  | 
G29A G35C A39G G41U G43C G62A A64U | < 1e-05 |  |  |  | 
A14C C16A G35A U45C A48G A52U | < 1e-05 |  |  | < 1e-05 | < 1e-05
G32A A36U G44U | < 1e-05 |  | < 1e-05 |  | 
G29A A42G G60U C67A | < 1e-05 |  |  |  | 
U30A G43U C67U | < 1e-05 |  |  |  | 
G32A A52U | < 1e-05 | < 1e-05 |  |  | 
G32A A52C | < 1e-05 |  |  | < 1e-05 | 
U31A G37A C68U | < 1e-05 |  |  |  | 
A15G U30G G44U | < 1e-05 |  |  |  | 
U31C G51C | < 1e-05 |  | < 1e-05 |  | < 1e-05
U30G G35C | < 1e-05 | < 1e-05 | < 1e-05 | < 1e-05 | < 1e-05
G29C G41C U57A | < 1e-05 |  | < 1e-05 |  | 
C16U A64U | < 1e-05 |  |  |  | 
A15G G37U G41C U56G | < 1e-05 |  | < 1e-05 |  | < 1e-05
A14G C34U C68G | 0.000349 ± 0.00016 |  | 5.07e-05 ± 2e-05 |  | 
G29U G62A | < 1e-05 | < 1e-05 | < 1e-05 |  | 
U31A A48C | < 1e-05 | < 1e-05 | 0.00014 ± 2.4e-05 | 4.87e-05 ± 1.3e-05 | 7.42e-05 ± 1.5e-05
G29C U30C A33C A42G U55A U56A | < 1e-05 |  | < 1e-05 |  | 

Variant | self-cleavage kobs at 40 uM GlcN6P [1] [s⁻¹] | self-cleavage kobs at 160 uM GlcN6P [2] [s⁻¹] | self-cleavage kobs at 10000 uM GlcN6P [3] [s⁻¹] | self-cleavage kobs at 640 uM GlcN6P [4] [s⁻¹] | self-cleavage kobs at 2500 uM GlcN6P [5] [s⁻¹]
C16A G29U U31C | 3.38e-05 ± 1.4e-05 |  | 0.000493 ± 0.00013 |  | 
A14U A36C G38C G51U U54G C71U | < 1e-05 |  |  |  | 
U30G G40U | 3.53e-05 ± 1.3e-05 | 6.94e-05 ± 1.5e-05 | 0.000668 ± 7.3e-05 | 0.000212 ± 2.9e-05 | 0.000615 ± 0.00014
A14G A15U C67G | 5.43e-05 ± 1.3e-05 |  | 0.0027 ± 0.00046 |  | 
A15G U31G A39U | 3.3e-05 ± 1.1e-05 | 0.000104 ± 1.8e-05 | 0.00265 ± 0.00042 | 0.000575 ± 0.00013 | 0.000869 ± 0.00014
G29C G66C | < 1e-05 |  |  |  | 
C16A G62U | < 1e-05 | < 1e-05 |  | < 1e-05 | 
A14C G29U C50G | 0.000119 ± 3.7e-05 |  |  |  | 
U31G A53U C58G G60A | < 1e-05 |  |  |  | 
A15U A48U G59C | < 1e-05 |  |  | < 1e-05 | 
U30G A48C C70G | < 1e-05 |  |  |  | 
C16A G60A G62U | < 1e-05 |  | < 1e-05 | < 1e-05 | < 1e-05
C16U A42G U57C | < 1e-05 |  |  |  | 
U31G G38U G63A | < 1e-05 |  |  |  | 
A14U A39C | 2.83e-05 ± 7.2e-06 |  |  |  | 
G29A A39U | 0.000107 ± 1.9e-05 | 0.000177 ± 3.4e-05 | 0.0037 ± 0.00049 | 0.000731 ± 0.00013 | 0.00176 ± 0.0003
U30G G44A | < 1e-05 |  |  |  | 
U30G G44U | < 1e-05 | < 1e-05 | 4.23e-05 ± 1.3e-05 |  | 
A15G U56C C67G | < 1e-05 |  |  |  | 
U31A G32U A42C U69A C71A | < 1e-05 |  |  |  | < 1e-05
U31G G63U | < 1e-05 | < 1e-05 | < 1e-05 | < 1e-05 | < 1e-05
A15U | 0.000227 ± 4e-06 | 0.00061 ± 2.2e-05 | 0.00847 ± 0.00024 | 0.00245 ± 8.9e-05 | 0.00682 ± 0.00026
U31G A33C G63C | < 1e-05 |  |  |  | 
G29U U49C | < 1e-05 |  | < 1e-05 |  | < 1e-05
A15G U46G A48U G59A | < 1e-05 | < 1e-05 | < 1e-05 |  | < 1e-05
A15G U46G | 0.000184 ± 2e-05 | 0.000667 ± 0.0001 |  | 0.00198 ± 0.00026 | 
